Measurements taken from the supplement of paper PMC4604168 (melanoma cell lines).
The other results are listed elsewhere or left out. Many values rest on one well or one pass, so single values are uncertain.

How the values were obtained:
Test in all cases: cell count relative to DMSO control; melanoma cells; higher = more viable cells
Details in all cases: library dose: low library concentration; 72 h
WM115 = tested on: WM115
WM1716 = tested on: WM1716
WM1745 = tested on: WM1745
WM3526 = tested on: WM3526
WM3619 = tested on: WM3619
WM451Lu = tested on: WM451Lu
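Note: cell number obtained by counting DAPI-stained nuclei in high-throughput microscope images with image analysis software, screen run in 1,536-well plates.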

COc1cc(Nc2ncc(F)c(Nc3ccc4c(n3)NC(=O)C(C)(C)O4)n2)cc(OC)c1OC [Tamatinib] + O=C(Nc1ccccc1)c1cc([N+](=O)[O-])ccc1Cl [GW9662] (first compound 0.4 µM, partner dose 2 µM)
cell count (WM115): 90.7%
cell count (WM1716): 94.8%
cell count (WM1745): 53.3%
cell count (WM3526): 95.9%
cell count (WM3619): 79.2%
cell count (WM451Lu): 111%

COc1cc(Nc2ncc(F)c(Nc3ccc4c(n3)NC(=O)C(C)(C)O4)n2)cc(OC)c1OC [Tamatinib] + Cc1ccc(NC(=O)c2cccc(N(C)C)c2)cc1NC(=O)c1ccc(O)cc1 [ZM336372] (first compound 0.4 µM, partner dose 2 µM)
cell count (WM115): 88.6%
cell count (WM1716): 82%
cell count (WM1745): 66.6%
cell count (WM3526): 98.1%
cell count (WM3619): 94.2%
cell count (WM451Lu): 84.8%

CC1(C)NC(=O)N(c2ccc([N+](=O)[O-])c(C(F)(F)F)c2)C1=O [nilutamide] + CCc1ccc(CCOc2ccc(CC3SC(=O)NC3=O)cc2)nc1 [pioglitazone] (first compound 1 µM, partner dose 2 µM)
cell count (WM115): 105%
cell count (WM1716): 95.3%
cell count (WM1745): 91.3%
cell count (WM3526): 95.6%
cell count (WM3619): 77.9%
cell count (WM451Lu): 94.7%

O=C(Nc1cccc(Cl)c1)Nc1ncc(CCNc2ncnc3ccsc23)s1 + NCC(=O)Nc1ccc(-n2nc(C(F)(F)F)cc2-c2ccc3c(ccc4ccccc43)c2)cc1 [OSU03012] (first compound 0.0008 µM, partner dose 1 µM)
cell count (WM115): 60.8%
cell count (WM1716): 101%
cell count (WM1745): 80.6%
cell count (WM3526): 61.3%
cell count (WM3619): 83.2%
cell count (WM451Lu): 51.7%

CC1(C)NC(=O)N(c2ccc([N+](=O)[O-])c(C(F)(F)F)c2)C1=O [nilutamide] + Cc1cc(N2CCOCC2)cc2[nH]c(-c3c(NC[C@@H](O)c4cccc(Cl)c4)cc[nH]c3=O)nc12 [BMS536924] (first compound 1 µM, partner dose 0.2 µM)
cell count (WM115): 104%
cell count (WM1716): 87.6%
cell count (WM1745): 70.3%
cell count (WM3526): 90.3%
cell count (WM3619): 107%
cell count (WM451Lu): 96.2%

C[C@@H]1CCN(C(=O)CC#N)C[C@@H]1N(C)c1ncnc2[nH]ccc12 + CN(NC(=O)CC(=O)NN(C)C(=S)c1ccccc1)C(=S)c1ccccc1 [STA4783] (first compound 1 µM, partner dose 0.006 µM)
cell count (WM115): 88.1%
cell count (WM1716): 88.6%
cell count (WM1745): 44.2%
cell count (WM3526): 95%
cell count (WM3619): 84%
cell count (WM451Lu): 104%

Cn1cncc1[C@@](N)(c1ccc(Cl)cc1)c1ccc2c(c1)c(-c1cccc(Cl)c1)cc(=O)n2C [tipifarnib] + O=S(=O)(c1ccccc1)N(CC(F)(F)F)c1ccc(C(O)(C(F)(F)F)C(F)(F)F)cc1 [T0901317] (first compound 0.01 µM, partner dose 1.4 µM)
cell count (WM115): 93.8%
cell count (WM1716): 82.6%
cell count (WM1745): 75.9%
cell count (WM3526): 100%
cell count (WM3619): 116%
cell count (WM451Lu): 105%

O=c1[nH]nc(Sc2ncc([N+](=O)[O-])s2)n1-c1ccc2c(c1)OCCO2 + COC(=O)c1sccc1S(=O)(=O)Nc1ccc(Nc2ccccc2)cc1OC [GSK0660] (first compound 0.2 µM, partner dose 1 µM)
cell count (WM115): 93.3%
cell count (WM1716): 100%
cell count (WM1745): 109%
cell count (WM3526): 93.6%
cell count (WM3619): 69%
cell count (WM451Lu): 88.5%

O=C(Nc1cccc(Cl)c1)Nc1ncc(CCNc2ncnc3ccsc23)s1 + CCc1ccc(CCOc2ccc(CC3SC(=O)NC3=O)cc2)nc1 [pioglitazone] (first compound 0.0008 µM, partner dose 2 µM)
cell count (WM115): 69.8%
cell count (WM1716): 93.6%
cell count (WM1745): 91.1%
cell count (WM3526): 101%
cell count (WM3619): 114%
cell count (WM451Lu): 91.6%

O=C(Nc1cccc(Cl)c1)Nc1ncc(CCNc2ncnc3ccsc23)s1 + COc1cc2c(Oc3ccc4[nH]c(C)cc4c3F)ncnc2cc1OCCCN1CCCC1 [cediranib] (first compound 0.0008 µM, partner dose 0.4 µM)
cell count (WM115): 76.8%
cell count (WM1716): 98%
cell count (WM1745): 104%
cell count (WM3526): 89.3%
cell count (WM3619): 113%
cell count (WM451Lu): 68.3%

O=c1[nH]nc(Sc2ncc([N+](=O)[O-])s2)n1-c1ccc2c(c1)OCCO2 + O=C1NC(=O)/C(=C/c2ccc(-c3ccc(F)cc3O)o2)S1 [AS252424] (first compound 0.2 µM, partner dose 1 µM)
cell count (WM115): 91.8%
cell count (WM1716): 96.7%
cell count (WM1745): 95.5%
cell count (WM3526): 101%
cell count (WM3619): 117%
cell count (WM451Lu): 112%

C[C@@H]1CCN(C(=O)CC#N)C[C@@H]1N(C)c1ncnc2[nH]ccc12 + CCCCCCCCCCCC1=C(O)C(=O)C=C(O)C1=O [Embelin] (first compound 1 µM, partner dose 1.2 µM)
cell count (WM115): 104%
cell count (WM1716): 108%
cell count (WM1745): 108%
cell count (WM3526): 106%
cell count (WM3619): 108%
cell count (WM451Lu): 91.8%

COc1cc(Nc2ncc(F)c(Nc3ccc4c(n3)NC(=O)C(C)(C)O4)n2)cc(OC)c1OC [Tamatinib] + OCCn1cc(-c2cnc3nnn(Cc4ccc5ncccc5c4)c3n2)cn1 [PF04217903] (first compound 0.4 µM, partner dose 1 µM)
cell count (WM115): 83.5%
cell count (WM1716): 89.3%
cell count (WM1745): 87%
cell count (WM3526): 88.9%
cell count (WM3619): 87.6%
cell count (WM451Lu): 78.6%
